Laboratory results: the supplement of paper PMC3334620
In all, about 33,000 sequences were measured (“E-score (-0.5 to 0.5)”: median about -0.054, highest 2% from about 0.39 on). Some of the results follow.

molecular target: Ylr278c (UniProt Q05854); assay: PBM E-score (8-mer binding enrichment) (E-score (-0.5 to 0.5)); higher = stronger / more preferred TF binding; most listed sequences are background and not binding sites; conditions: protein concentration: 200 nM; construct: GST-DNA-binding domain
In short: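 Masliner-normalised scans of fluorescent anti-GST signal were the basis for scoring. That signal came from GST-tagged yeast transcription factors applied at about 100-200 nM to double-stranded universal all-10-mer Agilent arrays on fresh or once-stripped slides. Each ungapped eight-base word, pooled with its reverse complement, received an E-score from the Universal PBM Analysis Suite.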

| Sequence | PBM E-score |
| --- | --- |
| GGGTCATA | -0.111 |
| ACAAATCC | 0.171 |
| CCGTAAGC | -0.0111 |
| GTGGTCGA | -0.345 |
| AGACGCAC | 0.0218 |
| CCTCGCCA | -0.241 |
| GGCGGCTA | 0.153 |
| AGATCCTA | -0.281 |
| ACCCACGC | -0.057 |
| CACCTTGA | -0.145 |
| TTCGAGAA | -0.193 |
| CCACGTGG | -0.344 |
| GACTGGCC | 0.127 |
| CCACGTGC | -0.185 |
| GCATCAAA | -0.126 |
| AAGACTAC | -0.227 |
| ATAGACTA | -0.343 |
| CCCACTAC | -0.109 |
| CATCTACA | -0.0614 |
| AAGCAAGT | -0.117 |
| ATCCAAGC | -0.11 |
| CCGAGTCG | 0.263 |
| TAACGGCA | 0.00445 |
| AACCTGCG | 0.108 |
| ACTCTTAA | -0.115 |

| Sequence | PBM E-score |
| --- | --- |
| ACTCATGC | -0.193 |
| ACACTCAC | 0.025 |
| CGCTTTCC | 0.143 |
| CAGCCAAA | -0.0295 |
| AAGTGGTG | 0.00804 |
| CATAAACA | -0.0795 |
| ACAGGTCT | -0.106 |
| GTGGAAAC | 0.00381 |
| GAGTACAC | -0.0243 |
| CTAGGTTA | 0.0674 |
| CGTTTAGC | 0.0278 |
| AAATTGAG | -0.067 |
| ATTAGCGG | 0.156 |
| AACCCTTG | -0.174 |
| ATCAGGCG | -0.00289 |
| ATAACCGC | 0.0605 |
| AATGCACA | -0.0771 |
| AGCTAATA | -0.233 |
| CATCGGAA | 0.396 |
| CGAATGCC | 0.179 |
| CCTCATCG | 0.0491 |
| CTTTAGTC | -0.0851 |
| ATGCCGCG | 0.304 |
| GAGGTAGA | -0.0204 |
| CTAGACTA | -0.137 |

| Sequence | PBM E-score |
| --- | --- |
| GCCAGTAC | -0.186 |
| CTAGGGGC | -0.114 |
| CTTAAACA | 0.00733 |
| GACTGGAC | -0.143 |
| ACTACTGG | -0.252 |
| ATCGAGGG | 0.031 |
| CTGTCAGC | -0.0314 |
| CGCAACCC | 0.139 |
| AATTGGCT | -0.082 |
| CGTTTAAC | -0.174 |
| ACTAAACT | -0.118 |
| CGAGCTAG | 0.0909 |
| ATGACAAA | -0.134 |
| CCTGAGAG | -0.192 |
| AAGCCACC | -0.238 |
| ACCCGTTC | 0.0613 |
| ATCGCGAC | 0.0412 |
| AGTTCGCA | -0.00335 |
| AACCGCAT | 0.0694 |
| CCCAACGG | 0.128 |
| ATCTAACC | 0.0187 |
| AGAGGACA | -0.169 |
| CGAAGGCG | 0.182 |
| GTGTCATA | -0.106 |
| GACAGGCC | -0.0794 |

| Sequence | PBM E-score |
| --- | --- |
| GCGGCAGA | 0.121 |
| CGAAAGGC | 0.0796 |
| AAAATTGA | -0.0482 |
| AGTTTGCC | 0.0328 |
| CCCTACCA | -0.212 |
| TGGTCTAA | -0.128 |
| CTACTGTA | -0.138 |
| CCGAGCCC | 0.183 |
| CGCCGGTC | 0.388 |
| ATAGTTAA | -0.0579 |
| GATTGTGA | 0.0581 |
| GACAGCTC | -0.0718 |
| GTTGAGCA | -0.0774 |
| GAAAGGAC | 0.097 |
| CGAAGCGC | 0.197 |
| TACTCTCA | -0.303 |
| TAAGCGGA | 0.327 |
| CGTTAGCC | 0.0119 |
| CAGAACTA | -0.15 |
| CCCAACCC | 0.051 |
| ACGCCACT | -0.127 |
| AGCTACCG | -0.0672 |
| AGTGTACG | -0.0975 |
| ATCCAATA | -0.0452 |
| CCGTTCTC | 0.0932 |

| Sequence | PBM E-score |
| --- | --- |
| AAATAGGA | -0.00548 |
| AACTGCTG | -0.135 |
| AGAGGGTA | -0.309 |
| CGCAGCCG | 0.189 |
| GATAATTA | 0.102 |
| CACTGACG | -0.143 |
| CGCTCAAA | -0.0906 |
| GTCACAAA | -0.086 |
| AATTCTCT | -0.113 |
| CCCCGGAG | 0.48 |
| CAGTTTGA | -0.101 |
| GCCGCTCC | 0.234 |
| ACACCTGT | -0.0112 |
| CGCTGCAA | -0.109 |
| AAGGCGCT | -0.0197 |
| CGCTGACG | 0.0398 |
| TATGTGCA | -0.173 |
| TATAAACA | -0.0892 |
| GTCTGCCA | -0.173 |
| ACGAAACA | -0.0403 |
| GTCTCCGA | 0.417 |
| ACTGGCCA | -0.131 |
| AAATTAAA | 0.073 |
| AATCTGCC | 0.0735 |
| GCATCAGA | -0.123 |

| Sequence | PBM E-score |
| --- | --- |
| GTACCCTA | -0.192 |
| AACGTCTT | -0.233 |
| CTGCAAGC | -0.0895 |
| CCAGCAGA | -0.158 |
| CATCGGAG | 0.457 |
| CTGATCAA | -0.101 |
| CCAAAAGG | -0.344 |
| GTTGATCA | -0.101 |
| GAATAGAC | -0.113 |
| GTGGGTGA | 0.0373 |
| ACTGATGA | -0.301 |
| GAAACCGA | 0.165 |
| CCTCAATC | 0.0572 |
| ACATAATA | -0.0789 |
| AATCTAGG | -0.199 |
| ACAGTGTG | -0.322 |
| AGCGTGTA | -0.177 |
| CAAAAGCG | 0.0203 |
| GGAATTCA | 0.183 |
| ACAAAACT | -0.148 |
| CACGGGGG | 0.0162 |
| TGACCTCA | -0.211 |
| CTTGGCAA | -0.332 |
| CAATGCTG | -0.108 |
| GGAGTACA | 0.215 |

| Sequence | PBM E-score |
| --- | --- |
| CAGATCTG | -0.107 |
| AATTAAGT | 0.116 |
| CGACAAAC | 0.0337 |
| AATTCAGA | -0.119 |
| CGTCGTAC | -0.125 |
| ACTGGAGC | -0.117 |
| GGCACGAA | -0.132 |
| GGGACATA | 0.0665 |
| ATCTCATG | -0.182 |
| CCTTGTCG | -0.211 |
| AGGGCTCC | 0.0646 |
| AACTCAAG | -0.096 |
| AGTTGGTA | -0.238 |
| ACTTGGCG | -0.165 |
| GCGACCCC | 0.156 |
| CGAAAGCG | -0.00844 |
| AATGGAAC | -0.032 |
| AAGAATAG | -0.186 |
| ACCAGAGC | 0.0145 |
| GTCGTATA | -0.188 |
| AAGGAGCT | -0.23 |
| CTACATGC | -0.198 |
| ACTTGGAA | -0.162 |
| ATCTGGCA | -0.136 |
| CCAGACGA | -0.149 |

| Sequence | PBM E-score |
| --- | --- |
| ACGGCAAG | -0.0614 |
| AATGCCAC | -0.107 |
| AACAGACG | -0.0792 |
| AAACTTCG | -0.0275 |
| GCAAAGAC | 0.00158 |
| ACATCGGC | 0.233 |
| GCATTCAC | 0.193 |
| ACAATAGT | -0.073 |
| AAGAATAA | -0.102 |
| GGTCGAAA | -0.0548 |
| GACCCTAC | -0.0173 |
| CGCGGTAA | 0.26 |
| AGGGCCTC | -0.149 |
| AAGGCTGT | -0.104 |
| GGTACTCA | -0.0728 |
| ATAGCGAT | -0.201 |
| CCCTTCAC | -0.188 |
| GGTTCGTA | -0.0544 |
| GCACCATA | -0.186 |
| CTGCCGTA | -0.117 |
| TATCACAA | -0.153 |
| CTTTTGTC | 0.11 |
| CATTTTAG | 0.135 |
| CGCTCCAC | -0.00347 |
| ACAGCCTC | -0.112 |

| Sequence | PBM E-score |
| --- | --- |
| TCTTTACA | -0.0334 |
| TAGAGCAA | -0.333 |
| ATTCGAAG | -0.0406 |
| AGCTAAAA | 0.0127 |
| ATGGCATG | -0.026 |
| TGATCGAA | -0.163 |
| GTCGGCGA | 0.243 |
| CAGCTCAG | -0.162 |
| AATGGTGT | -0.119 |
| ATATTTCC | 0.33 |
| CCTGTCCC | -0.128 |
| TATGCCGA | 0.276 |
| CGTGTCCA | -0.122 |
| AGAACCTG | -0.28 |
| ATGTCGTA | -0.292 |
| GATTAAAC | 0.0975 |
| TAACGATA | -0.124 |
| AGGGCGGA | 0.385 |
| ACCAAGTG | -0.243 |
